From patent US10040826 come the findings set out here.

Holding throughout (settings): remark: other sources report otherwise
Test [1] deals with A244 gp120 (no modifications) (HIV-1). The test can be described thus: SPR titration, binding to CH01-04_RUA1; A244 gDneg at [10] to [100], unit inferred.
For test [2] the target is unchanged. Briefly: SPR titration, binding to CH01-04_RUA1; A244 gDneg at [10], [25], [50], [75], [100], unit inferred; constant labelled ka1.
Test [3] shares this target. Briefly: SPR titration, binding to CH01-04_RUA2; A244 gDneg at [10] to [100], unit inferred; constant labelled kd1.
Test [4] shares this target. The test can be described thus: SPR titration, binding to CH01-04_RUA2; A244 gDneg at [10], [25], [50], [75], [100], unit inferred; constant labelled ka1.
Test [5] has the same target. The test can be described thus: SPR titration, binding to CH01-04_RUA2; A244 gDneg at [10] to [100], unit inferred.

For orientation: Kd means the constant that tells how readily two partners part at equilibrium. Low values mean a tighter complex, high ones a looser complex. Usually koff stands for the first-order rate constant of dissociation. Read a high koff as fast dissociation. One may read the kon as the rate constant with which the complex forms.

Where a chain is given by its changes, count along the chain named.

B1: CH01_RUA1 (antibody)
chain 1: EVQLVESGGGVVRPGGSLRLSCAASGFTFDDYGMSWVRQAPGKGLEWVSGINWNGGSTGYADSVKGRFTISRDNAKNSLYLQMNSLRAEDTALYYCARGTDYTIDDQGIRYQGSGTFWYFDLWGRGTLVTVSS
chain 2: [letters of about 100 residues not shown]
In test [1], B1 displayed a Kd of 11.4 µM and a koff of 0.018 s⁻¹. The molecule also showed a kon in test [2] of 1580 M⁻¹ s⁻¹.

B2: CH01_RUA2 (antibody)
chain 1: B1 chain 1 with R110L
chain 2: [letters of about 100 residues not shown]
On to B2, for which, in test [3], the koff was 0.01 s⁻¹. The same molecule displayed a kon in test [4] of 3550 M⁻¹ s⁻¹. Further, the Kd in test [5] amounted to 2.82 µM.
